This is one part of the list.

This is an account of results in the supplement of paper PMC11417369.

This experiment concerns PfHDP1 homeodomain (GST-tagged). The experiment in a line: gcPBM binding intensity (ln(normalized median fluorescence intensity)); higher = stronger DNA binding. The method, boiled down: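 Binding intensity values are the highest Masliner-normalised natural-log median intensity among replicate spots of either probe orientation. The binding step lasted 1 h in 1× PBS with 1% milk, 0.2 mg/ml BSA, 0.5% salmon testes DNA and 0.03% Triton X-100, using GST-tagged P. falciparum DNA-binding domains expressed in E. coli on an Agilent 4 × 180k array of primer-extended double-stranded 36-bp intergenic genomic probes plus negative controls. Alexa488 anti-GST antibody and a 488 nm scan detected bound protein.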
For “TTAATTTTTTTTTCTTGTACACACTATTTTATAATT [XGTACX_site8783]”, the “gcPBM binding intensity (ln)” value was 7.06.

Turning to “TAGGTCCTCATTTTATGTACATAAAGAAATATGATT [XGTACX_site4138]”, the “gcPBM binding intensity (ln)” value was determined as 6.76. The value for “TACATACATACATACACACACACATATATATATATA [CACACA_site42]” was 9.22; that for “TCCTTCGAAACTAAAATTCATTTAAAATATTGATAT [CACACA_negctrl_site369]” was 6.11. The value for “AAAGAAAAAAAAATTACACACATATATTATAGATAT [CACACA_site7495]” was 6.37; that for “ATATATGCTAATATATGTACTGATTATATCTCTTCA [XGTACX_site7156]” was 6.47.

Regarding “AAAAAAAATATATAAACACACATATTTATATACGCA [CACACA_site1631]”, the “gcPBM binding intensity (ln)” value was 6.18. For “ATATAAACATTTAGTAATCCATATAGGTACTACTGA [CACACA_negctrl_site1249]” the value was 6.02. For “TATTTATAGATATATACACACATATACATATTGTTT [CACACA_site7611]” the value was 6.63. The value for “TCTTATCCATATATTACACACTATATATAGAAATTA [CACACA_site291]” was 6.9; that for “AGAAATGAAATCCAAAAACGAGGAACCAATAACGCA [CACACA_negctrl_site1758]” was 6.52. For “AAGGCAAACAAACACACACACATATATACCTATATA [CACACA_site5203]”, the “gcPBM binding intensity (ln)” value came out at 6.89. Turning to “ATATTATATTATTAATGTACATATATATAATTTTAA [XGTACX_site4974]”, the “gcPBM binding intensity (ln)” value came to 6.47. For “AGATATCTTGTGAAATAAAAAAAATAATTGCTTATA [CACACA_negctrl_site798]”, the “gcPBM binding intensity (ln)” value was determined as 6.1. The value for “AAATTAGACTATAATACACACATAAAAAAAAAAAAA [CACACA_site6155]” was 6.45; that for “ATATATATATATGTATGTACATATTTTTTTTAACAC [XGTACX_site8475]” was 9.06. The value for “GCAGTATTTCGGAACACACAAACATAAATATGTATT [CACACA_site2316]” was 6.44; that for “ATATATATTTAAAGATGTACATAATGAAATGGTTAT [XGTACX_site4706]” was 7.36. For “AAATTTATTTATTATAGTACACTTAATACTACCCAA [XGTACX_site41]” the value was 6.33. In the case of “AGCACAGACGGACACACACACACACCCACAGACACA [CACACA_site4358]”, the “gcPBM binding intensity (ln)” value is 6.66. For “GCACAATTTACACTTAAACACACAAAAAAAAATTAT [CACACA_site8642]” the value was 6.8. Regarding “CATCTTAGTTTGAGTTGTACAATATTTATAAAAATA [XGTACX_site693]”, the “gcPBM binding intensity (ln)” value was 6.69. Consider “ACAAGTTTAACATTTCGTACTTATTGTGTTTTTTTT [XGTACX_site5487]”, for which the “gcPBM binding intensity (ln)” value worked out at 6.73.

As to “TATACACGCGGACACACACACACACGCAAAAAAAAA [CACACA_site6377]”, the “gcPBM binding intensity (ln)” value was 7.03. On to “TTTACACCGTAATATGCATGTGTGTATATATTTTTG [TGCATGCA_site186]”, for which the “gcPBM binding intensity (ln)” value came out at 6.63. The value for “ATAAGCCATTTTTGTGGTACATAAAATAGATATATA [XGTACX_site5175]” was 5.87; that for “TAAAAACCAAAGAAAAGTACAAATTTAAATGAGAAA [XGTACX_site7450]” was 6.68. For “TGAACTCATAGATTTAGTACATATATAAAAAAATTC [XGTACX_site1692]” the value was 6.17; for “TTAAATGGAAAAATATGTACATATATATATATATTT [XGTACX_site2286]”, 6.5.

As to “ATATTAAATTCAATTTAATGTTTTGTGAATTTTAGA [CACACA_negctrl_site1421]”, the “gcPBM binding intensity (ln)” value is 6.14. For “TAAACACCCATATAAACACACATACATACATACATA [CACACA_site5383]” the value was 6.79; for “GATTAATTTAAAAAATGTACATTTTATTGTATAACC [XGTACX_site5539]”, 6.55.

Consider “ACAATATGTATATATATATATATGCAAATGTATAAA [CACACA_negctrl_site53]”, for which the “gcPBM binding intensity (ln)” value was 7.35.

For “CCAAGAAACCAAAAAAGTACATACATGGTTATAATT [XGTACX_site4249]”, the “gcPBM binding intensity (ln)” value is 6.92. The value for TTTTTTGTTATTGGCGTGCACATATCCATTTATAGT was 9.48; that for “CATATATATTTATGTACACACATTAATAAAAAAAAA [CACACA_site5741]” was 6.41. The value for “CTTTTAATATTAAGATGTACTTAGAATTTTTTTTTT [XGTACX_site8338]” was 6.36; that for “TGTAGAGCGCAAAGTAGTACTACAAATTATGGAGGG [XGTACX_site3022]” was 7.73.

Take “AACAGCATATCACATTTCTTCAAAAAAAAATAAAAT [CACACA_negctrl_site733]”: the “gcPBM binding intensity (ln)” value turned out to be 6.33. For “ATATATATAAATAATTGTACTTAAAAAAAAAAAAGG [XGTACX_site6847]” the value was 6.51. Regarding “TTTGTTAAAAATATATTATGAATAAAAATATATTTT [CACACA_negctrl_site170]”, the “gcPBM binding intensity (ln)” value is 6.03. For “TACAAAATAACTAGCACACATATGTATAAACATATA [CACACA_site5948]” the value was 6.33; for “TATGTCAATCAAGCAAGTACATATATATATAAATAT [XGTACX_site7554]”, 6.25.

As for “TTCAAAACTTAAAATCGTACAAGACAATTATTATAT [XGTACX_site6626]”, the “gcPBM binding intensity (ln)” value is 6.32. On to “GCCATTGTACCATCCACACACATATATATATGTATA [CACACA_site2704]”, for which the “gcPBM binding intensity (ln)” value came out at 7.81. For the sequence “AATTATATTACGAAATGTACATATAATAATGTATAT [XGTACX_site4410]”, the “gcPBM binding intensity (ln)” value is 6.38. For “TTAAAACATAAAAAAAGTACATACAAATATATATAA [XGTACX_site789]” the value was 6.34; for ACTTATTTATTTTTAGTGCATTTAGTTTTATTTTAT, 9.65; for “TATAACTATAAAAGGAGTACTATATATATATATATA [XGTACX_site1388]”, 9.37. For “AATAGTACAAAAAAAAAAAAAAAAAAAAAAAAAAAA [CACACA_negctrl_site1376]” the value was 6.15; for “TCTACAAAATTATCATGTACATATTATTATAATTAT [XGTACX_site6585]”, 6.47. In the case of “TATTTGCAATGCAAATGTACATGAATTTTTTTAATG [XGTACX_site7474]”, the “gcPBM binding intensity (ln)” value stood at 9.21. For “TAAAAAGAAAAAAAGAGTACAAACAAAATAATAATT [XGTACX_site6071]” the value was 6.85; for “AGTATACACAAACACACACACACAAAAAAAAAAAAA [CACACA_site8036]”, 6.6. For “TTTTTTAAAAAACAAACACACACGTAGAAAAAAAAA [CACACA_site826]” the value was 6.84; for “TAATTATATGGATACACACACATACATTTACATAAC [CACACA_site5744]”, 6.88; for “TATATACCTATATATACACACAAATACATAAGCTTC [CACACA_site1369]”, 6.64. The value for “AAATATTTTTTAATGTGTACATAGAACATATATATA [XGTACX_site3136]” was 6.59; that for “ATAATATATATATTATGTACATATAAATTTTTTTTT [XGTACX_site5826]” was 6.39. On to “GATATGATTAACTTATGTTATTCTTGATGATTACGT [CACACA_negctrl_site354]”, for which the “gcPBM binding intensity (ln)” value amounted to 6.25. The value for “AATATATTTATATATAGTACTTTTATAATATCGTTT [XGTACX_site6658]” was 6.06; that for “AATACACATAATACATGTACTCACATTGTTATAACA [XGTACX_site4129]” was 7.11; that for “TTTTTTATTTATTGTTATACATCTTACTACTTATAA [GTGCAC_negctrl_site381]” was 6.63.

Take “TACGTTATATACAACTGTACTTGGATAATTATTAAC [XGTACX_site5614]”: the “gcPBM binding intensity (ln)” value stood at 6.63. For “TACAAATTAATATGTACACACAAATATAAATATGTA [CACACA_site7016]” the value was 6.3; for “TTTTCTTTTTTGAACTGTACGCGTAAATTTAAAAAG [XGTACX_site882]”, 6.36. The value for “AAGTTTTTTTCTTTTTTTCTCTCTTTTTTTTTTTTT [XGTACX_negctrl_site613]” was 5.75; that for “TTTTTTTATTTTTGTTGTACTTATAATTCTGTAAAA [XGTACX_site7344]” was 6.7.

In the case of “TATAAATATAAATACACACACACACGCCAAAGCGTA [CACACA_site6181]”, the “gcPBM binding intensity (ln)” value was found to be 6.61. With “CTTTTTTTTTTAAATAGTACTTTCTCGTATACTCAT [XGTACX_site1842]”, the “gcPBM binding intensity (ln)” value worked out at 6.41. In the case of “TGTGAAATAAAATTTATACACACTTGCTAAATGATC [CACACA_site181]”, the “gcPBM binding intensity (ln)” value was 6.48.

For the sequence “AAGAAAAATGTGTTTTTTTTTTTTTTTTTTTTCAAT [TGCATGCA_negctrl_site404]”, the “gcPBM binding intensity (ln)” value was 5.87. The value for “ATAAGAAGAAGAAAAACACACATATGTAAATATATA [CACACA_site3138]” was 6.84; that for “ATATTATAGATATACACACACACATGCATGCACATA [CACACA_site6203]” was 9.82; that for “TAATTAAATATTTCAGTGCATTATTTTATGATCCAT [GTGCAC_site9456]” was 10.1.

Take “AGATGAACTAAAAAGGTGCTAAATATGTGACCACTG [GTGCAC_site9406]”: the “gcPBM binding intensity (ln)” value stood at 6.56. Turning to “TTTTTTTTAGTATGAACACACATATAGATTATAAAA [CACACA_site7391]”, the “gcPBM binding intensity (ln)” value came to 6.32.

Regarding “TACATACACAGACACACACACATATAAATATAAATA [CACACA_site7641]”, the “gcPBM binding intensity (ln)” value came to 7.18. The value for “ATTTAGAATGTTCCTACACACCAAATTTAAGTGTGC [CACACA_site7161]” was 6.66; that for “ATTAATTTAATTTGAATTATTTTATTATATTATTAT [XGTACX_negctrl_site10]” was 6.2. For the sequence GTTTGAATATATCAGGTGCATTTATAATTCATATGA, the “gcPBM binding intensity (ln)” value was determined as 9.12. For “TATATATCTTTATGCACACACAAAGAAAATTTTCCT [CACACA_site7366]” the value was 10.5; for “AAGAATATAATCTTCACACATATATATATATATATA [CACACA_site5927]”, 9.47; for “AAGGACAACAAACAAACACACACAAAAAAAAAATAA [CACACA_site9263]”, 6.65. “TTATTATTAAAACACACACACAAAAAAAAAAAAAAA [CACACA_site1480]”: the “gcPBM binding intensity (ln)” value was determined as 6.43. As for “AAAAAAAAAAAAAAAACACACATGTATAATATAATA [CACACA_site2209]”, the “gcPBM binding intensity (ln)” value was 6.8. For “TACACCTGCACGATTGCACACAAATATGTTTTGAAG [CACACA_site8656]” the value was 9.74; for “TATAGATGTGGTTTATGTACATACTATAAAAAATCA [XGTACX_site1400]”, 6.54; for “TTATATATATATATATAATATATATATATTTAAATA [XGTACX_negctrl_site453]”, 6.49.
